Results on three molecules are retold here after PMC4107866.

Protein sequences, listed by entry. Tags and fused reporters are not part of them.
UniProt Q9Y2Y4: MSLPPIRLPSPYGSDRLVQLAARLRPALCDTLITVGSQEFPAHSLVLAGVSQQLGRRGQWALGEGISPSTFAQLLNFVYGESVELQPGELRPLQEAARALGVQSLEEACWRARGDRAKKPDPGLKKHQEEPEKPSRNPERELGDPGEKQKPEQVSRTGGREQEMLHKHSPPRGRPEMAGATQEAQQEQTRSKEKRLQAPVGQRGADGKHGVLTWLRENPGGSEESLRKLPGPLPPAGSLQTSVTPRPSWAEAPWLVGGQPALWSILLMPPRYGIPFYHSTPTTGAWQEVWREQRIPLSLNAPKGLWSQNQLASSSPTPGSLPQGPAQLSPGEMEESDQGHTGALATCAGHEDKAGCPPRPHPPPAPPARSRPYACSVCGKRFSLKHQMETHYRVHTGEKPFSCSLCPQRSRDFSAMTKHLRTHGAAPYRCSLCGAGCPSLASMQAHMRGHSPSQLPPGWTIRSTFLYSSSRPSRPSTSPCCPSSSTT

The target of experiment [1] is FLAG-tagged Cul3 (human) (UniProt Q13618). Put plainly: co-IP; HEK293 cells co-transfected with tagged proteins (FLAG-Cul3, MYC-BTB proteins, HA-CLWs); lysates in RIPA buffer, primary antibody then protein A-Sepharose, 1 hr each at 4°C, two washes with RIPA; immunoblot. A general note: A western blot detects proteins with antibodies after separation by electrophoresis.

Experiment [2] addresses FLAG-Cul3Δ51-67 (human) (UniProt Q13618). Described as above.
Experiment [3] has as its target FLAG-TEV-Cul3 (human) (UniProt Q13618). The experiment can be described thus: co-IP; two sequential immunoprecipitations from lysates co-expressing FLAG-TEV-Cul3, MYC-Ctb73 and HA-LRR5: FLAG beads, release by TEV protease, then MYC antibody; immunoblot for HA-LRR5.
Experiment [4] deals with T1, MYC-Ctb73 (human) (UniProt Q9H0C5).
T1 sequence: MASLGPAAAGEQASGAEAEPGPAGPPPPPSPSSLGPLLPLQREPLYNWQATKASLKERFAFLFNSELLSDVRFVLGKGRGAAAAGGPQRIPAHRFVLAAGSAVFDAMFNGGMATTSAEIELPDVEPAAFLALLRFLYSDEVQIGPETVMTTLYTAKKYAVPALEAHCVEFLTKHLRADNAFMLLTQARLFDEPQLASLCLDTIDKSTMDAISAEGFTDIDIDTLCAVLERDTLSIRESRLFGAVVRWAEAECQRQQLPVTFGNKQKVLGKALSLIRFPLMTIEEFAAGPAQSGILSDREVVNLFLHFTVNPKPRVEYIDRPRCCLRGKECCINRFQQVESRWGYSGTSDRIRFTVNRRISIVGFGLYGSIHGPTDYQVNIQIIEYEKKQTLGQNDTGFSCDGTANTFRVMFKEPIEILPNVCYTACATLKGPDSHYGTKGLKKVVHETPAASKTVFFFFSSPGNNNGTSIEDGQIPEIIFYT
The experiment can be described thus: co-IP; HEK293 cells co-transfected with tagged proteins (FLAG-Cul3, MYC-BTB proteins, HA-CLWs); lysates in RIPA buffer, primary antibody then protein A-Sepharose, 1 hr each at 4°C, two washes with RIPA; immunoblot.

Experiment [5] addresses FAZF (human) (UniProt Q9Y2Y4). The experiment is described as above.
In experiment [6] the target is T2, PLZF (human) (UniProt Q05516).
T2 sequence: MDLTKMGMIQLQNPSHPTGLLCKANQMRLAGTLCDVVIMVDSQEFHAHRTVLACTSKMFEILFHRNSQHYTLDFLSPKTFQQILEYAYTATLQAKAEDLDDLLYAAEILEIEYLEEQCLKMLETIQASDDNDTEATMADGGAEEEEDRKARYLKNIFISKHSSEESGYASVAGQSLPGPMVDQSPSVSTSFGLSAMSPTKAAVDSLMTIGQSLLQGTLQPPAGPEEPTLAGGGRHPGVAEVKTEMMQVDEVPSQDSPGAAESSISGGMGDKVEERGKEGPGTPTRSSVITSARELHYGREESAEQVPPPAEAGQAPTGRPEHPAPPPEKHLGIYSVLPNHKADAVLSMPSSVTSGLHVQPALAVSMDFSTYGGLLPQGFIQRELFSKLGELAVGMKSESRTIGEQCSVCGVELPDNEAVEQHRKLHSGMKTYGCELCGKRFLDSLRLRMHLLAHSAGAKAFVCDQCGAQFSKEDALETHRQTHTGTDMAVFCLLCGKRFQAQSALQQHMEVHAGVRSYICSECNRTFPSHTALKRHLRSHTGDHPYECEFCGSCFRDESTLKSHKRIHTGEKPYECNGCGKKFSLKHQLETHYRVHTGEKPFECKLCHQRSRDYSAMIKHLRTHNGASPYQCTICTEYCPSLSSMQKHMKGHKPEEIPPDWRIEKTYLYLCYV
The experiment is described as above.

For experiment [7], the target named is T1, MYC-Ctb73 (human). Put plainly: co-IP; two sequential immunoprecipitations from lysates co-expressing FLAG-TEV-Cul3, MYC-Ctb73 and HA-LRR5: FLAG beads, release by TEV protease, then MYC antibody; immunoblot for HA-LRR5.
Experiment [8] addresses T3, MYC-Ctb73Δ2-61 (human) (UniProt Q9H0C5).
T3 sequence: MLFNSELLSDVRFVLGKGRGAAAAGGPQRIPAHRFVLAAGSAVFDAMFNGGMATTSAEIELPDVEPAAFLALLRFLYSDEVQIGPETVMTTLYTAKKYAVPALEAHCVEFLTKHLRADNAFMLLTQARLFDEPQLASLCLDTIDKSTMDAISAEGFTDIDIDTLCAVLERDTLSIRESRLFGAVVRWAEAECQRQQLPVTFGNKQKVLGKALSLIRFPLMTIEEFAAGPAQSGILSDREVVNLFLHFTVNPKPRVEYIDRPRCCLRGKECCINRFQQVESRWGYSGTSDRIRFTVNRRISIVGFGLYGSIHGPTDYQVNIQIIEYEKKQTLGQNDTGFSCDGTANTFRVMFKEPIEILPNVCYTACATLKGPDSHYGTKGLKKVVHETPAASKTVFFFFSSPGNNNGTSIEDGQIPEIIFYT
The experiment can be described thus: co-IP; HEK293 cells co-transfected with tagged proteins (FLAG-Cul3, MYC-BTB proteins, HA-CLWs); lysates in RIPA buffer, primary antibody then protein A-Sepharose, 1 hr each at 4°C, two washes with RIPA; immunoblot.

No constants are given. Whether binding was seen depends on the method and setting. Binding seen in cells or lysates may run through a third protein. Some binding calls cover weakened binding; strength is not graded here. Sequences can lack the tags named with a protein.

B1: MYC-Ctb73 (protein, UniProt Q9H0C5 1-482)
chain: MASLGPAAAGEQASGAEAEPGPAGPPPPPSPSSLGPLLPLQREPLYNWQATKASLKERFAFLFNSELLSDVRFVLGKGRGAAAAGGPQRIPAHRFVLAAGSAVFDAMFNGGMATTSAEIELPDVEPAAFLALLRFLYSDEVQIGPETVMTTLYTAKKYAVPALEAHCVEFLTKHLRADNAFMLLTQARLFDEPQLASLCLDTIDKSTMDAISAEGFTDIDIDTLCAVLERDTLSIRESRLFGAVVRWAEAECQRQQLPVTFGNKQKVLGKALSLIRFPLMTIEEFAAGPAQSGILSDREVVNLFLHFTVNPKPRVEYIDRPRCCLRGKECCINRFQQVESRWGYSGTSDRIRFTVNRRISIVGFGLYGSIHGPTDYQVNIQIIEYEKKQTLGQNDTGFSCDGTANTFRVMFKEPIEILPNVCYTACATLKGPDSHYGTKGLKKVVHETPAASKTVFFFFSSPGNNNGTSIEDGQIPEIIFYT
Regarding B1, the results for the binding result in experiment [1], in experiment [2] and in experiment [3] were “binds”, “no binding” and “binds”, respectively.

B2: HA-LRR5 (fibromodulin) (protein, UniProt Q06828 19-376)
chain: QYEDDPHWWFHYLRSQQSTYYDPYDPYPYETYEPYPYGVDEGPAYTYGSPSPPDPRDCPQECDCPPNFPTAMYCDNRNLKYLPFVPSRMKYVYFQNNQITSIQEGVFDNATGLLWIALHGNQITSDKVGRKVFSKLRHLERLYLDHNNLTRMPGPLPRSLRELHLDHNQISRVPNNALEGLENLTALYLQHNEIQEVGSSMRGLRSLILLDLSYNHLRKVPDGLPSALEQLYMEHNNVYTVPDSYFRGAPKLLYVRLSHNSLTNNGLASNTFNSSSLLELDLSYNQLQKIPPVNTNLENLYLQGNRINEFSISSFCTVVDVVNFSKLQVLRLDGNEIKRSAMPADAPLCLRLASLIEI
Take B2: the binding entry in experiment [4] is “binds”; in experiment [1], “binds”; in experiment [5] it was “binds”; in experiment [6], “no binding”; in experiment [2], “binds”; in experiment [7] it was “binds”. Besides, in experiment [3], the binding result is “binds”.

B3: HA-LRR5-B/C (protein, UniProt Q06828 19-376)
chain: QYEDDPHWWFHYLRSQQSTYYDPYDPYPYETYEPYPYGVDEGPAYTYGSPSPPDPRDCPQECDCPPNFPTAMYCDNRNLKYLPFVPSRMKYVYFQNNQITSIQEGVFDNATGLLWIALHGNQITSDKVGRKVFSKLRHLERLYLDHNNLTRMPGPLPRSLRELHLDHNQISRVPNNALEGLENLTALYLQHNEIQEVGSSMRGLRSLILLDLSYNHLRKVPDGLPSALEQLYMEHNNVYTVPDSYFRGAPKLLYVRLSHNSLTNNGLASNTFNSSSLLELDLSYNQLQKIPPVNTNLENLYLQGNRINEFSGSSFATVVDVVNFSKLQVLRLDGNEIKRSAMPADAPLCLRLASLIEI
For B3, the binding entry was “no binding” in experiment [8], “binds” in experiment [4], “binds” in experiment [1] and “no binding” in experiment [2].
